# Data reported in the supplement of paper PMC4967469.
# Tests used:
# Assay in all cases: Viability of human cancer cell lines after 72 h of drug (GDSC screen)
# XMD11-85h = compound: COc1cc(C(=O)NC2CCN(C)CC2)ccc1Nc1ncc2c(n1)N(C1CCCC1)CCC(=O)N2C(C)C [XMD11-85h]; conditions: top dose 10 µM; top dose inferred
# Method: (§1)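 Human cancer cell lines in 384-well plates, medium with 10% serum, drug for 72 h over a 256-fold dose range (nine 2-fold or five 4-fold steps up to the top dose). Adherent lines were fixed and stained with the nucleic acid dye Syto60, suspension lines read with resazurin; signal relative to control wells, capped at 0 and 100%. One two-parameter sigmoid per drug and line, fitted in a mixed model over all curves with the slope shared within a line.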
# AZD6482 = compound: Cc1cc([C@@H](C)Nc2ccccc2C(=O)O)c2nc(N3CCOCC3)cc(=O)n2c1 [AZD6482]
# Method: as §1
# BMN-673 = compound: Cn1ncnc1[C@H]1c2n[nH]c(=O)c3cc(F)cc(c23)N[C@@H]1c1ccc(F)cc1 [BMN-673]; conditions: top dose 10 µM; top dose inferred
# Method: as §1
# MLN4924 = compound: NS(=O)(=O)OC[C@@H]1C[C@@H](n2ccc3c(N[C@H]4CCc5ccccc54)ncnc32)C[C@@H]1O [MLN4924]; conditions: top dose 1 µM; top dose inferred
# Method: as §1
# [1] = top dose 5 µM, screen: GDSC drug entry 1066, top dose inferred
# [2] = top dose 5.12 µM, screen: GDSC drug entry 156
Cell Line,AUC (XMD11-85h),IC50 (XMD11-85h),AUC (AZD6482; [1]),IC50 (AZD6482; [1]),AUC (BMN-673),IC50 (BMN-673),AUC (MLN4924),IC50 (MLN4924),AUC (AZD6482; [2]),IC50 (AZD6482; [2])
"SNU-C5 (large intestine, adherent)",0.97,> 10 µM,0.892,> 5 µM,0.784,4.71 µM,0.818,0.636 µM,,
"SR (lymphoid neoplasm, suspension)",0.84,5.91 µM,0.863,3.63 µM,0.819,4.95 µM,0.789,0.394 µM,0.926,> 5.12 µM
"SU-DHL-8 (B-cell lymphoma, suspension)",0.967,> 10 µM,,,0.847,6.65 µM,0.852,0.694 µM,0.913,> 5.12 µM
"SU-DHL-10 (B-cell lymphoma, suspension)",0.99,> 10 µM,0.814,1.82 µM,0.998,> 10 µM,0.998,> 1 µM,0.205,0.0616 µM
"SW684 (fibrosarcoma, adherent)",0.974,> 10 µM,0.87,> 5 µM,0.931,> 10 µM,0.966,> 1 µM,0.827,> 5.12 µM
"SW872 (soft tissue, adherent)",0.924,> 10 µM,0.803,2.2 µM,0.754,3.08 µM,0.853,0.669 µM,0.884,4.6 µM
"SW982 (soft tissue, adherent)",0.923,> 10 µM,0.777,2.07 µM,0.645,1.6 µM,0.754,0.345 µM,0.267,0.0675 µM
"SW1271 (small cell lung carcinoma, adherent)",0.978,> 10 µM,0.974,> 5 µM,0.828,7.46 µM,0.796,0.549 µM,0.881,> 5.12 µM
"SW1710 (bladder, adherent)",0.933,> 10 µM,0.671,0.949 µM,0.854,8.31 µM,0.916,> 1 µM,0.581,0.538 µM
"T-24 (bladder, adherent)",0.986,> 10 µM,0.886,> 5 µM,0.47,0.518 µM,0.754,0.322 µM,0.939,> 5.12 µM
"TE-1 (oesophagus, adherent)",0.949,> 10 µM,0.863,> 5 µM,0.928,> 10 µM,0.858,> 1 µM,0.888,> 5.12 µM
"TE-5 (oesophagus, adherent)",0.965,> 10 µM,0.925,> 5 µM,0.722,2.96 µM,0.781,0.481 µM,0.936,> 5.12 µM
"TE-8 (oesophagus, adherent)",0.953,> 10 µM,0.885,> 5 µM,0.692,2.26 µM,0.9,> 1 µM,0.966,> 5.12 µM
"TE-9 (oesophagus, adherent)",0.979,> 10 µM,0.901,> 5 µM,0.799,5.01 µM,0.892,> 1 µM,0.903,> 5.12 µM
"TE-10 (oesophagus, adherent)",0.934,> 10 µM,0.916,> 5 µM,0.859,7.99 µM,0.903,> 1 µM,0.851,3.81 µM
"TE-12 (oesophagus, suspension)",0.978,> 10 µM,0.945,> 5 µM,0.97,> 10 µM,0.839,0.902 µM,0.863,> 5.12 µM
"TGW (neuroblastoma, adherent)",0.991,> 10 µM,0.962,> 5 µM,0.971,> 10 µM,0.967,> 1 µM,0.989,> 5.12 µM
"TK (B-cell lymphoma, suspension)",0.985,> 10 µM,0.946,> 5 µM,0.759,3.22 µM,0.988,> 1 µM,0.938,> 5.12 µM
"TT (thyroid, adherent)",0.98,> 10 µM,0.97,> 5 µM,0.919,> 10 µM,0.934,> 1 µM,0.974,> 5.12 µM
"TUR (B-cell lymphoma, suspension)",0.962,> 10 µM,0.903,> 5 µM,0.842,6.22 µM,0.673,0.182 µM,0.96,> 5.12 µM
"VA-ES-BJ (soft tissue, adherent)",0.984,> 10 µM,0.891,> 5 µM,0.664,1.84 µM,0.399,0.0324 µM,0.853,4.33 µM
"VCaP (prostate, adherent)",0.986,> 10 µM,,,0.91,> 10 µM,0.773,0.403 µM,0.888,> 5.12 µM
"VMRC-LCD (lung adenocarcinoma, adherent)",0.971,> 10 µM,0.993,> 5 µM,0.917,> 10 µM,0.919,> 1 µM,,
"WM278 (melanoma, adherent)",0.937,> 10 µM,0.879,> 5 µM,0.733,3.17 µM,0.898,> 1 µM,,
"WM-115 (melanoma, adherent)",0.97,> 10 µM,0.865,> 5 µM,0.816,7.21 µM,0.886,> 1 µM,0.874,> 5.12 µM
"WSU-DLCL2 (B-cell lymphoma, suspension)",0.987,> 10 µM,0.867,3.29 µM,0.99,> 10 µM,0.965,> 1 µM,0.993,> 5.12 µM

# By IC50 is meant the dose at which the fit gives 50% viability; where the fit passes the top or lowest dose, that dose stands as a limit. For AUC the same curve is integrated over the 256-fold range of doses and scaled to a fraction; values near 1 show little effect. Where the top dose is marked as inferred, it was derived from the fitted curves, not read from the paper. For some of these results: Where an entry number is given, a second screen of the drug exists; the two often differ.
